Experimental data taken from the supplement of paper PMC12355420.
Where a name gives a salt, the structure may show the parent alone. The list shows a part of the results. No stated cut-off is given here; in the data, active = 0.5 or less and inactive = the rest. Repeats are few or missing, and single values can be far off.

Assays:
Conditions in all cases: 50 µM; 24 h
[1] = system: HeLa VPS33A reporter cells; assay: relative cell viability (CellMask signal) vs DMSO (fraction of DMSO); higher = less cytotoxic;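 further: primary screen of an FDA-approved drug library in HeLa reporter cells in 96-well format, CellMask signal normalized to DMSO-treated wells set as 1, under 0.5 deemed highly cytotoxic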
[2] = system: HeLa VPS33A R498W KI + HA-SDC1-FLAG; assay: relative GAG core protein HA-SDC1 amount per cell number vs DMSO (fraction of DMSO); higher = more SDC1 (GAG core protein);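 further: HA-SDC1 level read out by In-Cell Western staining with an anti-HA antibody against the N-terminal tag, screening FDA-approved library drugs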
[3] = system: HeLa VPS33A KO + NLuc-VPS33A R498W; assay: relative mutant VPS33A R498W amount (NanoLuc luminescence) vs DMSO (fraction of DMSO); HeLa model of a glycosaminoglycan (GAG) storage disease; KI is knock-in and KO knock-out; SDC1 is syndecan 1; higher = higher mutant VPS33A level;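 further: screen of an FDA-approved drug library, NanoLuc luminescence read after lysing the treated cells, taken as a measure of mutant VPS33A protein stability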

Row | Structure (SMILES) | relative cell viability [1] | relative GAG core protein HA-SDC1 amount per cell number [2] | relative mutant VPS33A R498W amount [3]
1 | C#CCN(C)Cc1ccccc1 [Pargyline (hydrochloride)] | 1.13 | inactive: 0.817 | 1.27
2 | O=P(O)(O)C(O)(Cn1ccnc1)P(=O)(O)O [Zoledronic Acid] | 0.814 | inactive: 0.621 | 2.05
3 | CN(C(=O)c1ccc(F)cc1C(F)(F)F)C1CCN(c2nnc(-c3ccnn3C)c3ccccc23)CC1 | 1.3 | inactive: 0.54 | 0.4
4 | Cc1ccc(-n2[nH]c(C)c(N=Nc3cccc(-c4cccc(C(=O)O)c4)c3O)c2=O)cc1C [Eltrombopag Olamine] | 0.819 | active: 0.346 | 1.25
5 | CCCCCCCCCCCCCCC(=O)O [Pentadecanoic Acid] | 0.957 | inactive: 0.779 | 0.596
6 | CCCCCCCCCCCCCCCC(=O)O [Palmitic acid] | 0.957 | inactive: 0.745 | 1.66
7 | CCCc1nc2c(C)cc(-c3nc4ccccc4n3C)cc2n1Cc1ccc(-c2ccccc2C(=O)O)cc1 [Telmisattan] | 1.5 | active: 0.491 | 0.472
8 | C[C@]12CC[C@@H]3c4ccc(O)cc4CC[C@H]3[C@@H]1CC[C@@H]2O [Estradiol] | 0.851 | active: 0.404 | 0.444
9 | CC1=C(C/C=C(\C)CCC[C@H](C)CCC[C@H](C)CCCC(C)C)C(=O)c2ccccc2C1=O [Vitamin K1] | 1 | inactive: 1.06 | 0.683
10 | CS(=O)(=O)CCNCc1ccc(-c2ccc3ncnc(Nc4ccc(OCc5cccc(F)c5)c(Cl)c4)c3c2)o1 [Lapatinib ditosylate*] | 0.912 | inactive: 0.814 | 0.00724
11 | CCOC(=O)[C@H](CCc1ccccc1)N[C@@H](C)C(=O)N1[C@H](C(=O)O)C[C@H]2CCCC[C@@H]21 [Trandolapril] | 1.01 | inactive: 0.829 | 1.27
12 | C[C@@H]1C[C@H]2[C@@H]3CCC4=CC(=O)C=C[C@]4(C)[C@@]3(F)[C@@H](O)C[C@]2(C)[C@@]1(O)C(=O)CO [Dexamethasone (DHAP)] | 1.2 | inactive: 1.56 | 1.17
13 | Brc1c(NC2=NCCN2)ccc2nccnc12 | 0.945 | inactive: 0.91 | 1.35
14 | O=c1c(O)c(-c2ccc(O)cc2O)oc2cc(O)cc(O)c12 [Morin] | 0.889 | inactive: 0.907 | 0.497
15 | CS(=O)(=O)c1ccc(C(=O)Nc2ccc(Cl)c(-c3ccccn3)c2)c(Cl)c1 [GDC-0449 (Vismodegib)] | 1.1 | inactive: 1.16 | 0.925
16 | CNC(=O)CN(CCN(CCN(CC(=O)[O-])CC(=O)NC)CC(=O)[O-])CC(=O)[O-].[Gd+3] [Gadodiamide] | 0.854 | inactive: 1.08 | 0.925
17 | CC(C)(Oc1ccc(Cl)cc1)C(=O)O [Clofibric Acid] | 1 | inactive: 1.14 | 1.32
18 | Nc1ccc(C(=O)NCC(=O)O)cc1 [Sodium 4-amiropparaty Hyalrate] | 1.27 | inactive: 0.801 | 0.774
19 | Cc1ccc(-c2cc(C(F)(F)F)nn2-c2ccc(S(N)(=O)=O)cc2)cc1 [Celecoxib] | 0.927 | inactive: 0.953 | 0.535
20 | CCCCC(C)(O)C/C=C/[C@H]1[C@H](O)CC(=O)[C@@H]1CCCCCCC(=O)OC (mixture of isomers) [Misoprostol] | 0.974 | inactive: 0.753 | 1.64
21 | CC(C)(C)C#Cc1cc(N(C(=O)[C@H]2CC[C@H](C)CC2)[C@H]2CC[C@H](O)CC2)c(C(=O)O)s1 [VX-222 (VCH-222, Lomibuvir)] | 0.526 | inactive: 0.661 | 1.34
22 | COC(=O)Nc1nc2cc([S+]([O-])c3ccccc3)ccc2[nH]1 (stereo not given) [Oxfendazole] | 0.709 | active: 0.313 | 0.465
23 | C[C@]12CC[C@@H]3c4ccc(O)cc4CC[C@H]3[C@@H]1CCC2=O [Estrone] | 1.09 | inactive: 1.28 | 0.887
24 | CC[C@H](c1ccc(O)cc1)[C@@H](CC)c1ccc(O)cc1 [Hexestrol] | 1.21 | inactive: 0.813 | 0.0555
25 | Cn1c([N+](=O)[O-])cnc1COC(N)=O [Ronidazole] | 1.09 | inactive: 0.811 | 1.24

Row | Structure (SMILES) | relative cell viability [1] | relative GAG core protein HA-SDC1 amount per cell number [2] | relative mutant VPS33A R498W amount [3]
26 | CCCc1nc(C)c2c(=O)nc(-c3cc(S(=O)(=O)N4CCN(CC)CC4)ccc3OCC)[nH]n12 [Vardenafil] | 0.95 | inactive: 0.981 | 0.675
27 | CCC(=O)O[C@]1(C(=O)CCl)[C@@H](C)C[C@H]2[C@@H]3CCC4=CC(=O)C=C[C@]4(C)[C@@]3(F)[C@@H](O)C[C@@]21C [Clobetasol propionate] | 1.05 | inactive: 0.508 | 0.444
28 | C#CCN[C@@H]1CCc2ccccc21 [Rasagiline Mesylate] | 0.931 | inactive: 1.23 | 1.21
29 | Cc1ccc(O)c([C@H](CCN(C(C)C)C(C)C)c2ccccc2)c1 [Tolterodine tartrate] | 0.976 | active: 0.446 | 0.929
30 | COc1cc(C(=O)NC2CCCNC2)cc(OC)c1OC (stereo not given) [Troxipide] | 1.1 | inactive: 0.833 | 1.32
31 | CCCc1nc(C(C)(C)O)c(C(=O)O)n1Cc1ccc(-c2ccccc2-c2nnn[nH]2)cc1 [Olmesartan] | 1.09 | inactive: 2.17 | 1.47
32 | COC(=O)C1=CO[C@@H](O[C@@H]2O[C@H](CO)[C@@H](O)[C@H](O)[C@H]2O)[C@@H]2C(CO)=CC[C@H]12 [Geniposide] | 1 | inactive: 0.755 | 0.999
33 | CC(C)(C)NCC(O)c1ccc(O)c(CO)c1 (stereo not given) [Salbutamol Sulfate] | 1.31 | inactive: 1.37 | 1.05
34 | O=C(Oc1ccccc1C(=O)O)c1ccccc1O [Sasapyrine] | 0.97 | inactive: 0.752 | 1.08
35 | COc1cccc(CCc2ccccc2OCC(CN(C)C)OC(=O)CCC(=O)O)c1 (stereo not given) [Sarpogrelate hydrochloride] | 1.01 | inactive: 0.703 | 0.798
36 | CC1=C(/C=C/C(C)=C/C=C/C(C)=C/CO)C(C)(C)CCC1 [Vitamin A] | 1.01 | active: 0.277 | 2.37
37 | C#C[C@]1(O)CC[C@H]2[C@@H]3CCC4=Cc5oncc5C[C@]4(C)[C@H]3CC[C@@]21C [Danazol] | 1.12 | inactive: 0.974 | 1.24
38 | Cc1cc(Nc2cc(CN3CCOCC3)c3nc(C)c(Cc4ccc(Cl)cc4F)n3n2)n[nH]1 | 1.14 | inactive: 0.647 | 0.73
39 | Cc1nc2n(c(=O)c1CCN1CCC(c3noc4cc(F)ccc34)CC1)CCCC2 [Risperidone] | 1.32 | inactive: 0.78 | 0.524
40 | CCCCCCCCCCCCCCCC(=O)OCC=C(C)C=CC=C(C)C=CC1=C(C)CCCC1(C)C [Retinyl (Vitamin A) Palmitate] | 0.957 | inactive: 0.725 | 1.45
41 | O=C(O)CCC(=O)O [Butane diacid] | 0.942 | inactive: 0.698 | 1.24
42 | Nc1ccc(S(=O)(=O)c2ccc(N)cc2)cc1 [Dapsone] | 1.04 | inactive: 0.851 | 1.41
43 | Cc1cccc(C)c1OCC(C)N (stereo not given) [Mexiletine HCl] | 0.91 | inactive: 1.08 | 1.08
44 | NCCCC(N)(C(=O)O)C(F)F (racemic) [DL-α-Difluoromethylornithine (hydrochloride hydrate)] | 1.1 | inactive: 0.798 | 1.17
45 | COc1ccc2cc([C@H](C)C(=O)O)ccc2c1 [Naproxen Sodium] | 1.07 | inactive: 1.24 | 1.18
46 | COc1ccccc1 [Anisole Methoxybenzene] | 1.2 | inactive: 1.13 | 1.19
47 | Nc1[nH]cnc2ncnc1-2 [Adenine sulfate] | 0.896 | inactive: 1.33 | 0.907
48 | NC(=O)N1c2ccccc2C=Cc2ccccc21 [Carbamazepine] | 1.2 | inactive: 1.08 | 0.995
49 | CC(=O)OCC(=O)[C@@]1(O)CC[C@H]2[C@@H]3CCC4=CC(=O)CC[C@]4(C)[C@H]3C(=O)C[C@@]21C [Cortisone acetate] | 1.07 | inactive: 0.969 | 1.39
50 | O=C1N=C(O)NC1(c1ccccc1)c1ccccc1 [Phenytoin sodium] | 1.03 | inactive: 0.905 | 1.53
